According to publication PMC11995724, “Antibiotic target discovery by integrated phenotypic and activity-based profiling of electrophilic fragments” (Cell chemical biology, 2025):
Out of some 3,200 compounds screened, about 110 (3.4%) showed an effect of 50% or more. The list shows a part of the results.

The compounds below were run on T1, V. cholerae SAD30. Conditions: relative growth, OD600, LB; 25 µM; inhibitor.
T1 construct: SAD30
Parameters: species or system S. aureus MSSA476 (TSB) or V. cholerae SAD30 (LB); 384-well bacterial growth screen at 25 uM, OD600 relative to DMSO control

Compound | % of control remaining
C=CC(=O)N1CCCN(C(=O)c2ccc(OC)cc2)CC1 [3-A21, 1-[4-(4-methoxybenzoyl)-1,4-diazepan-1-yl]prop-2-en-1-one] | 127.201%
C=CC(=O)Nc1cnn(-c2ccccc2C)c1C(F)F [1-E22, N-[5-(difluoromethyl)-1-(2-methylphenyl)-1H-pyrazol-4-yl]prop-2-enamide] | 98.0568%
C=CC(=O)N1CCOC(c2cccc(OC)c2)C1 (centres unmarked) [3-E09, 1-[2-(3-methoxyphenyl)morpholin-4-yl]prop-2-en-1-one] | 97.7357%
O=C(CCl)COc1ccc(Cl)cc1 [10-M17, 1-chloro-3-(4-chlorophenoxy)propan-2-one] | 11.6891%
Cc1[nH]c2ccccc2c1C=C(C#N)C(=O)NCc1ccccc1 [8-D16, N-benzyl-2-cyano-3-(2-methyl-1H-indol-3-yl)prop-2-enamide] | 68.5928%
N#CC(=Cc1ccc2c(c1)OCCO2)C(=O)Nc1nccs1 [8-B03, 2-cyano-3-(2,3-dihydro-1,4-benzodioxin-6-yl)-N-(1,3-thiazol-2-yl)prop-2-enamide] | 93.8817%
O=C(CCl)N[C@H]1C[C@H](c2ccccc2)C1 [7-D12, 2-chloro-N-[(1r,3r)-3-phenylcyclobutyl]acetamide] | 82.2072%
O=C(CCl)Nc1ccc(SC(F)F)cc1 [4-B10, 2-chloro-N-{4-[(difluoromethyl)sulfanyl]phenyl}acetamide] | 104.205%
CC(C)CN(C(=O)CCl)C1CC1 [5-D14, 2-chloro-N-cyclopropyl-N-(2-methylpropyl)acetamide] | 92.298%
C=CC(=O)Nc1cc(C)n(CC(C)c2nnc3n2CCCCC3)n1 (centres unmarked) [2-A17, N-[5-methyl-1-(2-{5H,6H,7H,8H,9H-[1,2,4]triazolo[4,3-a]azepin-3-yl}propyl)-1H-pyrazol-3-yl]prop-2-enamide] | 92.3574%
C=CC(=O)N1CCC(C(=O)N[C@H]2CC[C@@H]2O)(c2ccccc2)CC1 (racemic) [3-G08, rac-N-[(1R,2R)-2-hydroxycyclobutyl]-4-phenyl-1-(prop-2-enoyl)piperidine-4-carboxamide] | 93.3248%
COc1cc([N+](=O)[O-])ccc1NC(=O)CCl [4-O07, 2-chloro-N-(2-methoxy-4-nitrophenyl)acetamide] | 100.582%
C=CC(=O)Nc1ccc(-c2noc(C)n2)cc1 [1-K16, N-[4-(5-methyl-1,2,4-oxadiazol-3-yl)phenyl]prop-2-enamide] | 84.6039%
O=C(CCl)NC(c1ccccc1)C1CC1 (centres unmarked) [5-L16, 2-chloro-N-[cyclopropyl(phenyl)methyl]acetamide] | 96.501%
Cc1cc(C=C(C#N)C(N)=O)c(C)n1-c1cccc2ccccc12 [9-I12, 2-cyano-3-[2,5-dimethyl-1-(naphthalen-1-yl)-1H-pyrrol-3-yl]prop-2-enamide] | 52.4133%
COc1ccc(C=C(C#N)C(=O)Nc2ccccc2)cc1 [8-A05, 2-cyano-3-(4-methoxyphenyl)-N-phenylprop-2-enamide] | 91.9782%
C=CC(=O)NC1(c2ccc(C(F)(F)F)cc2)CCCC1 [2-E04, N-{1-[4-(trifluoromethyl)phenyl]cyclopentyl}prop-2-enamide] | 87.4168%
COc1ccc(NC(=O)C(C#N)=Cc2c(Cl)nc3ccccn23)cc1 [9-G09, 3-{2-chloroimidazo[1,2-a]pyridin-3-yl}-2-cyano-N-(4-methoxyphenyl)prop-2-enamide] | 85.9959%
C=CC(=O)N1CC(OCc2nc(C)no2)C1 [1-P18, 1-{3-[(3-methyl-1,2,4-oxadiazol-5-yl)methoxy]azetidin-1-yl}prop-2-en-1-one] | 127.331%
C=CC(=O)NCCC(=O)N1CCN(c2ccccc2Cl)CC1 [3-J22, N-{3-[4-(2-chlorophenyl)piperazin-1-yl]-3-oxopropyl}prop-2-enamide] | 101.97%
O=C(CCl)NC1CCC(O)(c2cccc(F)c2)CC1 (centres unmarked) [5-A11, 2-chloro-N-[4-(3-fluorophenyl)-4-hydroxycyclohexyl]acetamide] | 100.872%
C=CC(=O)N1CC(NC(=O)c2ccoc2CC)C(C)(C)C1 (centres unmarked) [1-L22, N-[4,4-dimethyl-1-(prop-2-enoyl)pyrrolidin-3-yl]-2-ethylfuran-3-carboxamide] | 95.4367%

Compound | % of control remaining
C=CC(=O)NC1C(=O)OCC1(C)C (centres unmarked) [1-E08, N-(4,4-dimethyl-2-oxooxolan-3-yl)prop-2-enamide] | 96.1136%
N#CC(=CC1=Cc2ccccc2OC1)C(=O)NCc1ccccc1 [9-F08, N-benzyl-3-(2H-chromen-3-yl)-2-cyanoprop-2-enamide] | 87.4915%
CC(Cl)C(=O)NCc1nn(-c2ccccc2)c2c1CCC2 (centres unmarked) [7-P05, 2-chloro-N-({1-phenyl-1H,4H,5H,6H-cyclopenta[c]pyrazol-3-yl}methyl)propanamide] | 70.1801%
COc1ccc(NC(=O)c2ccccc2NC(=O)CCl)cc1 [4-L05, 2-(2-chloroacetamido)-N-(4-methoxyphenyl)benzamide] | 109.209%
C=CC(=O)NCC1CCC2(CCCOC2)O1 (centres unmarked) [2-O13, N-({1,7-dioxaspiro[4.5]decan-2-yl}methyl)prop-2-enamide] | 86.9536%
CSc1ccc(C=C(C#N)C(=O)Nc2ccc3c(c2)OCCO3)cc1 [9-L05, 2-cyano-N-(2,3-dihydro-1,4-benzodioxin-6-yl)-3-[4-(methylsulfanyl)phenyl]prop-2-enamide] | 91.8423%
C=CC(=O)N(Cc1sc(C)nc1C)[C@@H](C)[C@H]1COC(C)(C)O1 [1-B15, N-[(1S)-1-[(4S)-2,2-dimethyl-1,3-dioxolan-4-yl]ethyl]-N-[(2,4-dimethyl-1,3-thiazol-5-yl)methyl]prop-2-enamide] | 85.2018%
CC1CCCN(Cc2ccc(CNC(=O)CCl)cc2)C1.Cl (centres unmarked) [6-K04, 2-chloro-N-({4-[(3-methylpiperidin-1-yl)methyl]phenyl}methyl)acetamide hydrochloride] | 90.8522%
CC1CCCN(C(=O)C(NC(=O)C(C)Cl)c2cnn(C)c2)C1 (centres unmarked) [7-G12, 2-chloro-N-[1-(1-methyl-1H-pyrazol-4-yl)-2-(3-methylpiperidin-1-yl)-2-oxoethyl]propanamide] | 74.5415%
C=CC(=O)NCc1cccc(CNS(C)(=O)=O)c1 [3-F11, N-{[3-(methanesulfonamidomethyl)phenyl]methyl}prop-2-enamide] | 90.8546%
CC(Cl)C(=O)NCC1c2ccccc2C(=O)N1Cc1ccccc1 (centres unmarked) [6-H20, N-[(2-benzyl-3-oxo-2,3-dihydro-1H-isoindol-1-yl)methyl]-2-chloropropanamide] | 88.5771%
C=CC(=O)NCC1(c2ccccc2)CC1(F)F (centres unmarked) [2-O20, N-[(2,2-difluoro-1-phenylcyclopropyl)methyl]prop-2-enamide] | 90.3503%
N#CC(=Cc1cnc2ccc(C#N)cn12)C(=O)Nc1ccc(F)cc1 [9-E20, 2-cyano-3-{6-cyanoimidazo[1,2-a]pyridin-3-yl}-N-(4-fluorophenyl)prop-2-enamide] | 86.6757%
CC(Cl)C(=O)NC(c1ccc(F)cc1)c1cnn(C)c1 (centres unmarked) [7-C19, 2-chloro-N-[(4-fluorophenyl)(1-methyl-1H-pyrazol-4-yl)methyl]propanamide] | 79.2995%
Cc1cc(C(=O)CCl)c(C)n1Cc1ccc(F)cc1 [10-N17, 2-chloro-1-{1-[(4-fluorophenyl)methyl]-2,5-dimethyl-1H-pyrrol-3-yl}ethan-1-one] | 95.5387%
O=C(CCl)Nc1nc2c(s1)CCc1ccccc1-2 [6-D03, 2-chloro-N-{4H,5H-naphtho[1,2-d][1,3]thiazol-2-yl}acetamide] | 105.868%
CC(Cl)C(=O)N1Cc2ccccc2OCC1C (centres unmarked) [7-F11, 2-chloro-1-(3-methyl-2,3,4,5-tetrahydro-1,4-benzoxazepin-4-yl)propan-1-one] | 75.731%
Cc1cc(C(=O)CCl)c(C)n1-c1ccc(Cl)c(Cl)c1 [10-D18, 2-chloro-1-[1-(3,4-dichlorophenyl)-2,5-dimethyl-1H-pyrrol-3-yl]ethan-1-one] | 108.475%
C=CC(=O)Nc1ccc2c(c1)N(CC#N)CC2 [1-C19, N-[1-(cyanomethyl)-2,3-dihydro-1H-indol-6-yl]prop-2-enamide] | 88.4903%
O=C1C=CC(=O)N1c1ccc(OC(F)F)cc1 [10-P11, 1-[4-(difluoromethoxy)phenyl]-2,5-dihydro-1H-pyrrole-2,5-dione] | 36.7816%
CCCCNC(=O)C(C#N)=Cc1cc(F)ccc1F [8-K08, N-butyl-2-cyano-3-(2,5-difluorophenyl)prop-2-enamide] | 68.0489%
C=CC(=O)Nc1ccccc1C(=O)N(C)C(C)C [3-H17, N-methyl-2-(prop-2-enamido)-N-(propan-2-yl)benzamide] | 87.8552%
